# The list shows a part of the results.
# What was measured:
# Assay in all cases: glycan array binding signal (z-score within array); higher = stronger binding
# Settings in all cases: glycan notation: IUPAC condensed, linker removed; mutation: E227G
# [1] = biological target: Neu5Ac(a2-6)Gal(b1-4)GlcNAc(b1-2)Man(a1-3)[GlcNAc(b1-4)][Neu5Ac(a2-6)Gal(b1-4)GlcNAc(b1-2)Man(a1-6)]Man(b1-4)GlcNAc(b1-4)GlcNAc
# Outline: (§1)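 From the Consortium for Functional Glycomics database, 3228 arrays were curated, keeping only those whose protein sequence was available. Binding is given as a within-array Z-score averaged across arrays sharing a protein sequence and across linkers. Negative Z-scores can be read as non-binding.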
# [2] = biological target: Neu5Ac(a2-6)Gal(b1-4)GlcNAc(b1-2)Man(a1-3)[Man(a1-6)]Man(b1-4)GlcNAc(b1-4)GlcNAc
# Outline: as §1
# [3] = biological target: Neu5Ac(a2-6)Gal(b1-4)GlcNAc(b1-2)Man(a1-3)[Neu5Ac(a2-3)Gal(b1-4)GlcNAc(b1-2)Man(a1-6)]Man(b1-4)GlcNAc(b1-4)GlcNAc
# Outline: as §1
# [4] = biological target: Neu5Ac(a2-6)Gal(b1-4)GlcNAc(b1-2)Man(a1-3)[Neu5Ac(a2-6)Gal(b1-4)GlcNAc(b1-2)Man(a1-6)]Man(b1-4)GlcNAc(b1-4)GlcNAc
# Outline: as §1
# [5] = biological target: Neu5Ac(a2-6)Gal(b1-4)GlcNAc(b1-2)Man(a1-3)[Neu5Ac(a2-6)Gal(b1-4)GlcNAc(b1-2)Man(a1-6)]Man(b1-4)GlcNAc(b1-4)[Fuc(a1-6)]GlcNAc
# Outline: as §1
# [6] = biological target: Neu5Ac(a2-6)Gal(b1-4)GlcNAc(b1-2)Man(a1-6)Man(b1-4)GlcNAc(b1-4)GlcNAc
# Outline: as §1
# [7] = biological target: Neu5Ac(a2-6)Gal(b1-4)GlcNAc(b1-2)Man(a1-6)[Gal(b1-4)GlcNAc(b1-2)Man(a1-3)]Man(b1-4)GlcNAc(b1-4)GlcNAc
# Outline: as §1
# [8] = biological target: Neu5Ac(a2-6)Gal(b1-4)GlcNAc(b1-2)Man(a1-6)[GlcNAc(b1-2)Man(a1-3)]Man(b1-4)GlcNAc(b1-4)GlcNAc
# Outline: as §1
# [9] = biological target: Neu5Ac(a2-6)Gal(b1-4)GlcNAc(b1-2)Man(a1-6)[Man(a1-3)]Man(b1-4)GlcNAc(b1-4)GlcNAc
# Outline: as §1
# [10] = biological target: Neu5Ac(a2-6)Gal(b1-4)GlcNAc(b1-2)[Neu5Ac(a2-6)Gal(b1-4)GlcNAc(b1-4)]Man(a1-3)[GlcNAc(b1-4)][Neu5Ac(a2-6)Gal(b1-4)GlcNAc(b1-2)[Neu5Ac(a2-6)Gal(b1-4)GlcNAc(b1-6)]Man(a1-6)]Man(b1-4)GlcNAc(b1-4)GlcNAc
# Outline: as §1
# [11] = biological target: Neu5Ac(a2-6)Gal(b1-4)GlcNAc(b1-2)[Neu5Ac(a2-6)Gal(b1-4)GlcNAc(b1-4)]Man(a1-3)[GlcNAc(b1-4)][Neu5Ac(a2-6)Gal(b1-4)GlcNAc(b1-4)Man(a1-6)]Man(b1-4)GlcNAc(b1-4)GlcNAc
# Outline: as §1
# [12] = biological target: Neu5Ac(a2-6)Gal(b1-4)GlcNAc(b1-2)[Neu5Ac(a2-6)Gal(b1-4)GlcNAc(b1-6)]Man(a1-6)[Neu5Ac(a2-6)Gal(b1-4)GlcNAc(b1-2)Man(a1-3)][GlcNAc(b1-4)]Man(b1-4)GlcNAc(b1-4)GlcNAc
# Outline: as §1
# [13] = biological target: Neu5Ac(a2-6)Gal(b1-4)GlcNAc(b1-3)Gal(b1-3)GlcNAc
# Outline: as §1
# [14] = biological target: Neu5Ac(a2-6)Gal(b1-4)GlcNAc(b1-3)Gal(b1-4)GlcNAc
# Outline: as §1
# [15] = biological target: Neu5Ac(a2-6)Gal(b1-4)GlcNAc(b1-3)Gal(b1-4)GlcNAc(b1-2)Man(a1-3)[Neu5Ac(a2-6)Gal(b1-4)GlcNAc(b1-3)Gal(b1-4)GlcNAc(b1-2)Man(a1-6)]GalNAc
# Outline: as §1
# [16] = biological target: Neu5Ac(a2-6)Gal(b1-4)GlcNAc(b1-3)Gal(b1-4)GlcNAc(b1-3)Gal(b1-4)GlcNAc
# Outline: as §1
# [17] = biological target: Neu5Ac(a2-6)Gal(b1-4)GlcNAc(b1-3)Gal(b1-4)GlcNAc(b1-3)Gal(b1-4)GlcNAc(b1-2)Man(a1-3)[Neu5Ac(a2-6)Gal(b1-4)GlcNAc(b1-3)Gal(b1-4)GlcNAc(b1-3)Gal(b1-4)GlcNAc(b1-2)Man(a1-6)]GalNAc
# Outline: as §1
# [18] = biological target: Neu5Ac(a2-6)Gal(b1-4)GlcNAc(b1-3)Gal(b1-4)GlcNAc(b1-3)GalNAc
# Outline: as §1
# [19] = biological target: Neu5Ac(a2-6)Gal(b1-4)GlcNAc(b1-3)Gal(b1-4)GlcNAc(b1-3)[Neu5Ac(a2-6)Gal(b1-4)GlcNAc(b1-3)Gal(b1-4)GlcNAc(b1-6)]GalNAc
# Outline: as §1
# [20] = biological target: Neu5Ac(a2-6)Gal(b1-4)GlcNAc(b1-3)Gal(b1-4)GlcNAc(b1-6)[Gal(b1-3)]GalNAc
# Outline: as §1
# [21] = biological target: Neu5Ac(a2-6)Gal(b1-4)GlcNAc(b1-3)Gal(b1-4)[Fuc(a1-3)]GlcNAc(b1-3)Gal(b1-4)[Fuc(a1-3)]GlcNAc
# Outline: as §1
# [22] = biological target: Neu5Ac(a2-6)Gal(b1-4)GlcNAc(b1-3)GalNAc
# Outline: as §1
# [23] = biological target: Neu5Ac(a2-6)Gal(b1-4)GlcNAc(b1-3)[Neu5Ac(a2-6)Gal(b1-4)GlcNAc(b1-6)]GalNAc
# Outline: as §1
# [24] = biological target: Neu5Ac(a2-6)Gal(b1-4)GlcNAc(b1-6)GalNAc
# Outline: as §1
# [25] = biological target: Neu5Ac(a2-6)Gal(b1-4)GlcNAc(b1-6)[Gal(b1-3)GlcNAc(b1-3)]Gal(b1-4)Glc
# Outline: as §1
# [26] = biological target: Neu5Ac(a2-6)Gal(b1-4)GlcNAc(b1-6)[Gal(b1-3)]GalNAc
# Outline: as §1
# [27] = biological target: Neu5Ac(a2-6)Gal(b1-4)GlcNAc6S
# Outline: as §1
# Neu5Ac(a2-6)GalNAc = biological target: Neu5Ac(a2-6)GalNAc
# Outline: as §1
# [28] = biological target: Neu5Ac(a2-6)GalNAc(b1-4)GlcNAc
# Outline: as §1
# [29] = biological target: Neu5Ac(a2-6)GalNAc(b1-4)GlcNAc6S
# Outline: as §1
binder,measurement,setting,value
"Epa1-NP-mutant-E227G (Candida glabrata), Q6VBJ0 (protein) MILNPALFLNKCVCIYTTLILLLLTNGGYATSSNDISLASKDPTTFPLGCSPDITTPKKGLSMELYSYDFRKKGSYPCWDAAYLDPNYPRTGYKSHRLLAKVDGVTGNINFYYHATKGCTPQLGHLPASYNYPKPLTMTNFTMLLYGYFRPKVTGFHTFTISADDLLFVNFGAGNAFDCCRRDSSADHFGNYQAYAIWGSKTAKDELTVHLDAGVYYPIRLFYNNRGYDGALSFTFKTESNENTVSDFSEYFFSLDDTEEGCPGLISYDSSCASVKTSKIIGIDYHTETPNENLVPITKTIYHLGIPCTGTTTTPLCGSGFYDPLANKCVTINTSSTSSVTKTTSHTTSKEVSFHSSISSQKTLIPKSIPSPYGPIKSQSIPTEMETSSEISSSEYAFSDVISTPSHSPYTKKHSSLNSSSYTSTVIHSLTSYSISQGIFSTSLSEQNITSKSSTDKFSTATSMSNNITQSSIIISQFSTNNENYTTTSMHTSSDKISTETLNNSISTTTSILFSNSSTILKNNTTIISSDKDTHYHPVNPTIVCSTNKTEIICASITQPSISNSNNHWSSSVLKFNSTTVRSTLPSSAGSNETSINVPFSSSTESNTSTSSTSTSNSKMVRSTLPSSAGSNETSISVPFSSSTESNTSTSSTSTSNSKMVRSTLPSSAGSNETSINVPFSSSTESNTSTSSTSTSNSKTVRSTPFSSAGIIMTSLSQRNNKSASSYASSNSKCYNTADSCRKVHSTPSYLLTSSYTSEGVDYDCSLVSTKLKINDTNCVNNKHTTKSCLKTSVTTTIPTLEIKTARKSSSNTIGLHSYPTSSPNKSISSAPIIGYISSFKTIKTASPSYQTSDLTTITTITSLNNPGSTAVENTHESNDKSRKTSSNDISSKHSVIKETKDAVESSNKSHQTNTLKCSSIIIASSSHNSYESLGGTTLTLTLSKVYSPQNNDTLPFLEISEVNPSRTVLPESSKMMQYLTSTEERNKTARNTIATNIVSISTFHFEGEGNAIRMGYTQLLLMLIGIIVMNIGT",glycan array binding signal (z-score),[1],-0.024
same,glycan array binding signal (z-score),[2],-0.18
same,glycan array binding signal (z-score),[3],-0.171
same,glycan array binding signal (z-score),[4],-0.125
same,glycan array binding signal (z-score),[5],-0.112
same,glycan array binding signal (z-score),[6],-0.193
same,glycan array binding signal (z-score),[7],-0.082
same,glycan array binding signal (z-score),[8],-0.195
same,glycan array binding signal (z-score),[9],-0.092
same,glycan array binding signal (z-score),[10],-0.153
same,glycan array binding signal (z-score),[11],-0.059
same,glycan array binding signal (z-score),[12],-0.074
same,glycan array binding signal (z-score),[13],0.067
same,glycan array binding signal (z-score),[14],-0.099
same,glycan array binding signal (z-score),[15],-0.086
same,glycan array binding signal (z-score),[16],-0.305
same,glycan array binding signal (z-score),[17],0.142
same,glycan array binding signal (z-score),[18],-0.24
same,glycan array binding signal (z-score),[19],-0.138
same,glycan array binding signal (z-score),[20],0.021
same,glycan array binding signal (z-score),[21],-0.079
same,glycan array binding signal (z-score),[22],-0.079
same,glycan array binding signal (z-score),[23],-0.088
same,glycan array binding signal (z-score),[24],-0.04
same,glycan array binding signal (z-score),[25],-0.149
same,glycan array binding signal (z-score),[26],0.171
same,glycan array binding signal (z-score),[27],0.724
same,glycan array binding signal (z-score),Neu5Ac(a2-6)GalNAc,-0.279
same,glycan array binding signal (z-score),[28],-0.155
same,glycan array binding signal (z-score),[29],-0.214
